Patent US5391540A, “Substituted pyridine compounds” (Rohm and Haas Company, priority 1993, dated 1995)
At least one read-out could not be matched to a standard name with certainty. Some compounds share one range, which may span the group rather than tell each member.

Legend:
Experiment in all cases: Post-emergence herbicidal activity (Table C)
Type in all cases: in vivo
Cocklebur = details: Cobu, 11.2 kg/ha, 10-14 days
Downy Brome = details: Dobr, 11.2 kg/ha, 10-14 days
Morningglory = details: Mogl, 11.2 kg/ha, 10-14 days
Velvetleaf = details: Vele, 11.2 kg/ha, 10-14 days
Yellow Nutsedge = details: Yens, 11.2 kg/ha, 10-14 days
Annual Bluegrass = details: Anbg, 11.2 kg/ha, 10-14 days
Seedling Johnsongrass = details: Sejg, 11.2 kg/ha, 10-14 days
Barnyardgrass = details: Bygr, 11.2 kg/ha, 10-14 days
Indian Mustard = details: Inmu, 11.2 kg/ha, 10-14 days
Wild Buckwheat = details: Wibw, 11.2 kg/ha, 10-14 days

Structure (SMILES)	post-emergent herbicidal activity index (Cocklebur)	post-emergent herbicidal activity index (Downy Brome)	post-emergent herbicidal activity index (Morningglory)	post-emergent herbicidal activity index (Velvetleaf)	post-emergent herbicidal activity index (Yellow Nutsedge)	post-emergent herbicidal activity index (Annual Bluegrass)	post-emergent herbicidal activity index (Seedling Johnsongrass)	post-emergent herbicidal activity index (Barnyardgrass)	post-emergent herbicidal activity index (Indian Mustard)	post-emergent herbicidal activity index (Wild Buckwheat)
COC(=O)c1c(OC)nc(C(F)(F)F)c(C(=O)N2CCCO2)c1CC(C)C [Compound 132, 3-pyridinecarboxylic acid, 5-(2-isoxazolidinecarbonyl)-2-methoxy-4-(2-methylpropyl)-6-(trifluoromethyl)-, methyl ester]	0 (0-24% inhibition)	0 (0-24% inhibition)	0 (0-24% inhibition)	0 (0-24% inhibition)	0 (0-24% inhibition)	0 (0-24% inhibition)	0 (0-24% inhibition)	0 (0-24% inhibition)	0 (0-24% inhibition)	0 (0-24% inhibition)
COC(=O)c1c(OC)nc(C(F)(F)F)c(C(=O)NNC(C)=O)c1CC(C)C [Compound 100, 3,5-pyridinedicarboxylic acid, 2-methoxy-4-(2-methylpropyl)-6-(trifluoromethyl)-, 3-methyl ester 5-(2-acetylhydrazide)]	0 (0-24% inhibition)	0 (0-24% inhibition)	0 (0-24% inhibition)	1 (25-49% inhibition)	0 (0-24% inhibition)	0 (0-24% inhibition)	0 (0-24% inhibition)	0 (0-24% inhibition)	0 (0-24% inhibition)	0 (0-24% inhibition)
COC(=O)c1c(OC)nc(C(F)(F)F)c(C2OCCS2)c1CC(C)C (stereo not shown) [Compound 122, 3-pyridinecarboxylic acid, 2-methoxy-4-(2-methylpropyl)-5-(1,3-oxathiolan-2-yl)-6-(trifluoromethyl)-, methyl ester]	0 (0-24% inhibition)	0 (0-24% inhibition)	0 (0-24% inhibition)	0 (0-24% inhibition)	0 (0-24% inhibition)	0 (0-24% inhibition)	0 (0-24% inhibition)	0 (0-24% inhibition)	0 (0-24% inhibition)	0 (0-24% inhibition)
COc1nc(C(F)(F)F)c(C=O)c(CC(C)C)c1C(=O)SC [Compound 135, 3-pyridinecarbothioic acid, 5-formy1-2-methoxy-4-(2-methylpropyl)-6-(trifluoromethyl)-, S-methyl ester]	0 (0-24% inhibition)	0 (0-24% inhibition)	0 (0-24% inhibition)	0 (0-24% inhibition)	0 (0-24% inhibition)	0 (0-24% inhibition)	0 (0-24% inhibition)	0 (0-24% inhibition)	0 (0-24% inhibition)	0 (0-24% inhibition)
CCOC=NNC(=O)c1c(C(F)(F)F)nc(OC)c(C(=O)OC)c1CC(C)C [Compound 124, 3,5-pyridinedicarboxylic acid, 2-methoxy-4-(2-methylpropyl)-6-(trifluoromethyl)-, 3-methyl ester, 5-(ethoxymethylene)hydrazide]	0 (0-24% inhibition)	0 (0-24% inhibition)	0 (0-24% inhibition)	0 (0-24% inhibition)	0 (0-24% inhibition)	0 (0-24% inhibition)	0 (0-24% inhibition)	0 (0-24% inhibition)	0 (0-24% inhibition)	0 (0-24% inhibition)
COC(=O)c1c(OC)nc(C(F)(F)F)c(C(=O)Cl)c1CC1CC1 [Compound 113, 3-pyridinecarboxylic acid, 5-(chlorocarbonyl)-4-(cyclopropylmethyl)-2-methoxy-6-(trifluoromethyl)-, methyl ester]	0 (0-24% inhibition)	0 (0-24% inhibition)	0 (0-24% inhibition)	0 (0-24% inhibition)	0 (0-24% inhibition)	1 (25-49% inhibition)	3 (75-99% inhibition)	0 (0-24% inhibition)	1 (25-49% inhibition)	2 (50-74% inhibition)
COC(=O)c1c(OC)nc(C(F)(F)F)c(C2SCCS2)c1CC(C)C [Compound 93, 3-pyridinecarboxylic acid, 5-(1,3-dithiolan-2-yl)-2-methoxy-4-(2-methylpropyl)-6-(trifluoromethyl)-, methyl ester]	1 (25-49% inhibition)	0 (0-24% inhibition)	2 (50-74% inhibition)	2 (50-74% inhibition)	0 (0-24% inhibition)	0 (0-24% inhibition)	2 (50-74% inhibition)	2 (50-74% inhibition)	2 (50-74% inhibition)	2 (50-74% inhibition)
COC(=O)c1c(OC)nc(C(F)(F)F)c(C2OCCO2)c1CC(C)C [Compound 109, 3-pyridinecarboxylic acid, 5-(1,3-dioxolan-2-yl)-2-methoxy-4-(2-methylpropyl)-6-(trifluoromethyl)-, methyl ester]	2 (50-74% inhibition)	0 (0-24% inhibition)	2 (50-74% inhibition)	2 (50-74% inhibition)	0 (0-24% inhibition)	0 (0-24% inhibition)	2 (50-74% inhibition)	2 (50-74% inhibition)	2 (50-74% inhibition)	2 (50-74% inhibition)
COC(=O)c1c(OC)nc(C(F)(F)F)c(C2OCCCO2)c1CC(C)C [Compound 110, 3-pyridinecarboxylic acid, 5-(1,3-dioxan-2-yl)-2-methoxy-4-(2-methylpropyl)-6-(trifluoromethyl)-, methyl ester]	2 (50-74% inhibition)	0 (0-24% inhibition)	2 (50-74% inhibition)	2 (50-74% inhibition)	0 (0-24% inhibition)	0 (0-24% inhibition)	2 (50-74% inhibition)	2 (50-74% inhibition)	2 (50-74% inhibition)	2 (50-74% inhibition)
COC(=O)c1c(OC)nc(C(F)(F)F)c(CO)c1CC1CC1 [Compound 117, 3-pyridinecarboxylic acid, 4-(cyclopropylmethyl)-5-(hydroxymethyl)-2-methoxy-6-(trifluoromethyl)-, methyl ester]	0 (0-24% inhibition)	0 (0-24% inhibition)	0 (0-24% inhibition)	2 (50-74% inhibition)	0 (0-24% inhibition)	0 (0-24% inhibition)	0 (0-24% inhibition)	0 (0-24% inhibition)	2 (50-74% inhibition)	1 (25-49% inhibition)
